Laboratory results from PubChem BioAssay AID360 (National Center for Advancing Translational Sciences (NCATS), 2006).
Out of some 48,000 compounds screened, about 550 (1.1%) were called active. Another 4% or so got no clear call; they are omitted. No stated cut-off is given here; in the data, active means potency below about 15 µM; inconclusive means mostly about 16 µM to 33 µM; inactive means weaker than that. The list shows a part of the results.

Each molecule was assayed against Lysosomal acid glucosylceramidase (Homo sapiens) (UniProt P04062) (assay: Glucocerebrosidase). Conditions: purified enzyme, resorufin glucoside fluorescence (screen aimed at inhibitors), 20 min.
Summary of the method: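 Compounds titrated against 0.2 nM normal enzyme, 30 uM resorufin beta-D-glucopyranoside substrate, citrate/phosphate buffer with taurocholate and tween-20, pH 5.9. Reaction ran 20 min at room temperature; fluorescence (Ex 548/Em 600) gave AC50.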
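Further: the screen sought inhibitors.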
Potency means the concentration at half of the fitted maximal effect.

UniProt P04062, sequence (P04062 whole entry, looked up): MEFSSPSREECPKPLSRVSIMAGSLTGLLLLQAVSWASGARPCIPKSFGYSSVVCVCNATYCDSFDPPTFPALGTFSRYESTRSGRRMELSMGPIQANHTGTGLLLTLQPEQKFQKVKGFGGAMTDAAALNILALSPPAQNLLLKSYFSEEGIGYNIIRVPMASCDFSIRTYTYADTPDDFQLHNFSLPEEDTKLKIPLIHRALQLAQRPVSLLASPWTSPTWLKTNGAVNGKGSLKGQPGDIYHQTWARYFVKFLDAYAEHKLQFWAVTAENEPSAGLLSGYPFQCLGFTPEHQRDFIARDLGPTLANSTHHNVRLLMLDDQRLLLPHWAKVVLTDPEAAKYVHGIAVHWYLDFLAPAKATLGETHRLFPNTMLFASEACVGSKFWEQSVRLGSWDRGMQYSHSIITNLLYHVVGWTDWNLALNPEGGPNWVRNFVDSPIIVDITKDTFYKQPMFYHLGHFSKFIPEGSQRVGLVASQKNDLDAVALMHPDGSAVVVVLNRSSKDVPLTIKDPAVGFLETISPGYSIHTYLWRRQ

Potency, inactive:
C=CCN(C(=O)CCC(=O)Nc1cc(C)on1)C(C(=O)NC(C)(C)C)c1cccc(OC)c1OC (stereo unspecified) > 76.9 µM
O=C(CSc1nnnn1Cc1ccccc1)c1ccccc1 > 76.9 µM
COCCOC(=O)C1=C(C)NC(=O)NC1c1c(OC)ncnc1OC (stereo unspecified) > 76.9 µM
CCOC(=O)c1cc2c(n(-c3ccc(C)cc3)c1=O)CCCC2=O > 76.9 µM
CCNC(=O)NC(=O)CSc1ccc(NC(C)=O)cc1 > 76.9 µM
O=C(Cn1nnc(-c2ccncc2)n1)Nc1ccc2c(c1)CCC2 > 76.9 µM
O=C(COc1ccccc1)N(Cc1ccco1)C1CCS(=O)(=O)C1 (stereo unspecified) > 76.9 µM
CCOC(=O)N1CCN(C(=O)Cn2ncn3nc(-c4cccs4)cc3c2=O)CC1 > 76.9 µM
O=C(CN(C(=O)CCC(=O)Nc1nccs1)c1cccc(F)c1)NCC1CCCO1 (stereo unspecified) > 76.9 µM
CCS(=O)(=O)N1CCC(C(=O)NC2CCCCC2)CC1 > 76.9 µM
O=CNCC(=O)NCCc1ccc(Cl)cc1 > 76.9 µM
CC(=O)C1C(c2ccc3ncccc3c2)NC(=O)NC1(O)C(F)(F)F (stereo unspecified) > 76.9 µM
O=c1c2[nH]c3cccc(Cl)c3c2ncn1CCN1CCCCC1 > 76.9 µM
Cc1cc(C)cc(N(C(C)C(=O)N2CCCCC2)S(C)(=O)=O)c1 (stereo unspecified) > 76.9 µM
CCN(CC)C(=O)c1sc(NC(=O)c2ccco2)c(C#N)c1C > 76.9 µM
CCOC(=O)N1CCN(C(=O)c2cn(C)c(=O)c3c2c2ccccc2n3C)CC1 > 76.9 µM
NC(=O)c1cc2ccc(O)cc2oc1=NCc1ccccc1
COc1ccc(C(=O)NCc2cn3ccccc3n2)cc1 > 76.9 µM
Cc1cc(NC(=O)CCN2C(=O)c3ccccc3C2=O)no1 > 76.9 µM
C=CCOC(=O)C(C#N)c1nc2ccccc2nc1N1CCN(Cc2ccccc2)CC1 (stereo unspecified)
Cc1ccc(N2C(=O)NC3(CCCCC3)C2=O)cc1 > 76.9 µM
CC(C)(C)C(=O)c1sc(Nc2ccccc2)nc1N > 76.9 µM
O=C(O)CN1C(=O)c2cccc(Oc3ccc(Cl)cc3)c2C1=O > 76.9 µM
Cc1ccc(-n2c(=O)[nH]c3c(C(N)=O)nc(-c4ccc(C)o4)nc32)cc1 > 76.9 µM
CC(C)CCn1c(SCC#N)nc2c(sc3ccccc32)c1=O > 76.9 µM
CCOCCCN1C(=O)CN(C2CCCCCC2)C(=O)C1c1ccc(OC)cc1 (stereo unspecified) > 76.9 µM
